Some of the results follow.
The sequences below were run on PfHDP1 homeodomain (GST-tagged) (assay: gcPBM binding intensity (ln(normalized median fluorescence intensity)); higher = stronger DNA binding).
Summary of the method: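 In this array assay, P. falciparum DNA-binding domains with a GST tag, expressed in E. coli, were applied for 1 h to primer-extended double-stranded 36-bp intergenic genomic probes and negative controls on an Agilent 4 × 180k array. Bound protein was visualised with Alexa488 anti-GST antibody at 488 nm. Binding intensity is the highest Masliner-normalised natural-log median intensity across replicate spots of either probe orientation.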

Sequence | gcPBM binding intensity (ln)
TATTTTTAAATATAAAGTACTTATATTAACTACGAA [XGTACX_site1524] | 6.21
ATTTTTTCTGTCTTAATTGGACCCACTGCAAATGGG [CACACA_negctrl_site1158] | 6.22
TTGTTAATAAATAAATAAATAAATATATTTATATAT [GTGCAC_negctrl_site271] | 6.01
TTAATTATTATATAAGTGCAATAATAAAAAGTTGTA [GTGCAC_site9552] | 9.36
TGATTTTTTCATATTCTACACACGTGAACAAATGTG [CACACA_site8987] | 6.4
AAAAAAAAAAAACACACACACACACCCATACATACA [CACACA_site707] | 6.78
AGACAAAATGTTTGAAGTACTTTTTATCAAATTAAA [XGTACX_site8885] | 6
TTATCAATAAAATGCACACACTGTAATATTATTAAA [CACACA_site6055] | 10.2
ATTTAAAACAAAAGTAGTACGTCTAATAAATTCAAC [XGTACX_site4344] | 6
ATATATATTTATATTTGTACGAATTAAAATTTTTTA [XGTACX_site5200] | 6.42
ATAGCTTTTATTTAAAGTACAAAAAGGATGTTGAAA [XGTACX_site3810] | 6.23
TATATGTATGTATGTACACACAAAAAATGGAATATA [CACACA_site3717] | 7.19
AGGGAATAAGTAAGGTGTACATAATTATGTTACTTT [XGTACX_site6152] | 6.67
TTTTTTTATTTTATAAAGCAAAAATAAGAATGAAAT [XGTACX_negctrl_site270] | 6.69
TTAAGAATATCTTAGAGTACATTTTATCATCTTAAA [XGTACX_site8298] | 5.75
TTTTTTTTTTTTAATTGTACATTTTATATAAACTTT [XGTACX_site6806] | 6.17
AATTTATTTTTTTAATGTACATATGGTATAAATATA [XGTACX_site8012] | 6.58
TGTTGATTTCTCAAATGTACTTTACTTTTCTTCAGA [XGTACX_site7916] | 5.96
AATATATATATATGTACACACTCCAATACATATACA [CACACA_site2682] | 6.64
TATATAGGTATCATTACACACATGTATACTTATTTG [CACACA_site7864] | 6.47
CATATAAATAAATACACACACACACGCCTTATAATT [CACACA_site7830] | 6.96
TATTTAAGAATATGAAGTACATATATTATTTAAAAA [XGTACX_site7897] | 6.07

Sequence | gcPBM binding intensity (ln)
CCTAAAAAAAAGAAATGATATACATATGTATATATA [GTGCAC_negctrl_site100] | 6.54
TTTTTCTTTCTCTATTGTACACATGGAAACACATAA [XGTACX_site4601] | 7.56
TCTTGTTTTCAAATATGTACATAGAATAGACATTTT [XGTACX_site684] | 6.54
AAATATATAAAATATACACACAGTAATATATATATA [CACACA_site1385] | 8.58
AAGTTTTATTTAAATTGTACTAAAATTTTTATATTA [XGTACX_site7065] | 6.61
ATAAAATGAACAAACACACACACATATATATATATA [CACACA_site2402] | 9.22
TATATATAAATATTCAGTACATAGTATTATTAAGTA [XGTACX_site1980] | 6.17
AAAAATATGTCCATGAAAAGGATAGGCAGGTAATCA [XGTACX_negctrl_site93] | 6.64
AAAAATTAAATAAATTTACACACTAATAATTACATA [CACACA_site8260] | 6.3
AAATATATTTTACATTGTACATGAATAAACTATAAA [XGTACX_site2080] | 6.53
ACGTTAAAATATTGGGTGCTAACACAATAAAAATAA | 6.56
TACAATTTTTTAAATGCACACAAAAGGAATAAATAA [CACACA_site8075] | 9.88
AAAAGCAAGTTCCAGGGTACATATATATGAAAAAAC [XGTACX_site2408] | 6.85
TAATATATGTATTGCACACCTATAACCATTATTTCT [CACACA_site1498] | 10.5
ACAAATTTATACTTAAAACACACGTAATCATTTATA [CACACA_site1636] | 6.3
TGAATATTCCTATGCACACAAATTAAAATACATAAT [CACACA_site4403] | 9.91
TAAAATAATTTATGCATACACACATATATATATATA [CACACA_site4021] | 9.28
AAGAAGAAATGCTTTGCATGCAAATTTTATGCCAAC [TGCATGCA_site721] | 6.84
CAATTTTTTAAATGCACACAAAAGGAATAAATAAAT [CACACA_site544] | 10
AACAATTGGAATAACGCATGCATTTATAATATAGAA [TGCATGCA_site298] | 6.93
TCTCAAGTTGTTAAAAAATAAAAACAATAAATCTAA [CACACA_negctrl_site165] | 5.91
TACAAAAAAAAAAAATAGATAAAATAATAATCAAAT [TGCATGCA_negctrl_site524] | 6.09

Sequence | gcPBM binding intensity (ln)
ATATATTGAACATATTGTACATTTTGTTAATATTTT [XGTACX_site7622] | 6.35
TTTTATAAAATATAATATAATAATATATGTATAATA [CACACA_negctrl_site1788] | 6.27
ATATATCTACAAATATGTACACACACACATATATAT [XGTACX_site1075] | 6.9
TGTACAACAATTTTTGCACACACCAAAACATAAAAT [CACACA_site1598] | 10.1
AGAAAAGAAATTAAATGTACACAACTATAACCAAAT [XGTACX_site8084] | 7.29
AAAAAAAAAAAATAAAGTACTAAATAATACATTATA [XGTACX_site6203] | 5.87
AAAAAAAAAAAAAAAAAAAAAAAAATCACACATTGG [TGCATGCA_negctrl_site412] | 7.21
TTTTGGATGTATTATACATGCATATTATTATAATAT [TGCATGCA_site997] | 6.59
AAAAAAAATATCCGACGTACTATTTTCGTAGAAATA [XGTACX_site6292] | 6.08
ATCTGAAAAATTAATAGTACAATTAATAATTAAACC [XGTACX_site8523] | 6.72
AAACAAAAAAGAAGCACACATATATATATATATATG [CACACA_site2456] | 7.17
TATACGCATATATACACACACATATATATATATATA [CACACA_site3416] | 9.46
AACAAACAAATAGTTTATTTTGATTTTTTTAAAAAT [CACACA_negctrl_site693] | 5.86
ACAAATAAATATTCGCGTACTTATATAATATTACGA [XGTACX_site6428] | 6.23
TGTTAATTTCATTTTCTACACACCTATCCTTTTTTT [CACACA_site8157] | 6.61
GAACAAAAATACTTATGTACACATTAGCAAGGAAAA [XGTACX_site5622] | 6.54
ATTATGTTATTATTTTGTACACATAAATAATACGTT [XGTACX_site816] | 6.61
TGTTTCTTATTTTTTTCACACACTAATCATTTCAAA [CACACA_site8695] | 7.02
TCATATGTGAAACACACACACACACCCAAAAAAACA [CACACA_site3247] | 6.88
ATGTAGACTGAAACCACACACACATATATATATATA [CACACA_site606] | 9.33
GGATTACAAATAGGTTGTACGTTTTTTTTTTTTTCT [XGTACX_site3605] | 6.13
TTACATTGTAAAAAGTGTACATATAATTTAATTAAT [XGTACX_site1834] | 6.49

Sequence | gcPBM binding intensity (ln)
TCCGTATATTTATACGCATGCATTATGAACATTGTT [TGCATGCA_site613] | 6.5
AAATTTTTTTTTGTCATATGATGTTTGAACCCAAAT [CACACA_negctrl_site1659] | 6.57
AAAAAAAATAATTTGCGTACATAAAAATTTATAGGA [XGTACX_site3016] | 6.46
CATACATACATATATACACACATATATAATAATATA [CACACA_site2678] | 6.9
TACGAATTAAAAAAGAGTACAAATAAAATATCTACA [XGTACX_site7412] | 5.9
TTTTAAACACCAATCAAAAAAATATAAATATAAATA [TGCATGCA_negctrl_site552] | 6.36
AATTAGCTCAAAGGTTGTACAAATATATTTTAATGG [XGTACX_site2352] | 6.74
TCCACATTAATGTAATGTACAAAATTAGAAAATAAA [XGTACX_site6287] | 6.54
AATATAAATACTCCTACACACATATAAATATAAATA [CACACA_site7419] | 6.79
TTTTGATTAAGTGAATTTTTTTATTTATATAAATAT [TGCATGCA_negctrl_site479] | 6.25
AAAAATTAAATGTACACACACCTTAAACAATGTCAT [CACACA_site6958] | 6.25
AAATACTGATTTGGTTGTACATGTGCACTATATAAC [XGTACX_site3795] | 9.12
ATAAATATATTTATATGTACATATAATTTTACATAT [XGTACX_site5440] | 6.73
TATAATCTAACATAATGTACATGTATATGCACTTTA [XGTACX_site369] | 8.43
ATATATATATCTAATTGTACATATTTTATAAATAAG [XGTACX_site4840] | 8.15
AAAAAAAAAAAAAAATGTACCCATAAAATAAGCATT [XGTACX_site8576] | 6.42
TATATTATATATATATGTACATATGGCAAAACATTA [XGTACX_site7958] | 7.12
AATCACAACGAACACACACACAAAAAAAAAAAAAAA [CACACA_site6790] | 6.42
TTTTTTACAATTAACACACTCAAAAATAATATTAAA [CACACA_site5198] | 6.45
AATTTTTTAAATGTGTGTACATATTATTTAAATAAT [XGTACX_site5967] | 6.5
CAAAATTTTTATAAGTCACACATTATCTAAGCTTAT [CACACA_site5747] | 6.08
GTATATAATTTTTTATGTACTAAATTATATGTTTTT [XGTACX_site4907] | 6.11

Reference: the supplement of paper PMC11417369
